This is an account of results in publication PMC9911399, “Two distinct binding modes provide the RNA-binding protein RbFox with extraordinary sequence specificity”.

The chains are these.
B1: AUACCGG (DNA:RNA)
RNA: GGGAGACCGGAAUUCAGAUUGUCCAUACCGGUUAAAUCCCGUCGUAGCCACCA
DNA 1: CAATCTGAATTCCGGTCTCCC
DNA 2: TGGTGGCTACGACGGGATT
B2: GGCCGGC (DNA:RNA)
RNA: B1 RNA with A25G, U26G, A27C, C29G, G31C
DNA 1: CAATCTGAATTCCGGTCTCCC
DNA 2: TGGTGGCTACGACGGGATT
B3: UCGCGCU (DNA:RNA)
RNA: B1 RNA with A25U, U26C, A27G, C29G, G30C, G31U
DNA 1: CAATCTGAATTCCGGTCTCCC
DNA 2: TGGTGGCTACGACGGGATT
B4: UCGCCAG (DNA:RNA)
RNA: B1 RNA with A25U, U26C, A27G, G30A
DNA 1: CAATCTGAATTCCGGTCTCCC
DNA 2: TGGTGGCTACGACGGGATT
B5: AGAAGGG (DNA:RNA)
RNA: B1 RNA with U26G, C28A, C29G
DNA 1: CAATCTGAATTCCGGTCTCCC
DNA 2: TGGTGGCTACGACGGGATT
B6: CUUGACU (DNA:RNA)
RNA: B1 RNA with A25C, A27U, C28G, C29A, G30C, G31U
DNA 1: CAATCTGAATTCCGGTCTCCC
DNA 2: TGGTGGCTACGACGGGATT
B7: UUCAUGA (DNA:RNA)
RNA: B1 RNA with A25U, A27C, C28A, C29U, G31A
DNA 1: CAATCTGAATTCCGGTCTCCC
DNA 2: TGGTGGCTACGACGGGATT
B8: CCUUUUC (DNA:RNA)
RNA: GGGAGACCGGAAUUCAGAUUGUCCCCUUUUCUUAAAUCCCGUCGUAGCCACCA
DNA 1: CAATCTGAATTCCGGTCTCCC
DNA 2: TGGTGGCTACGACGGGATT
B9: AAUCGGG (DNA:RNA)
RNA: B1 RNA with U26A, A27U, C29G
DNA 1: CAATCTGAATTCCGGTCTCCC
DNA 2: TGGTGGCTACGACGGGATT
B10: GUCUAUU (DNA:RNA)
RNA: B8 RNA with C25G, C26U, U27C, U29A, C31U
DNA 1: CAATCTGAATTCCGGTCTCCC
DNA 2: TGGTGGCTACGACGGGATT
B11: CUAUAAA (DNA:RNA)
RNA: B1 RNA with A25C, C28U, C29A, G30A, G31A
DNA 1: CAATCTGAATTCCGGTCTCCC
DNA 2: TGGTGGCTACGACGGGATT
B12: AGCCGCG (DNA:RNA)
RNA: B1 RNA with U26G, A27C, C29G, G30C
DNA 1: CAATCTGAATTCCGGTCTCCC
DNA 2: TGGTGGCTACGACGGGATT
B13: CGGUCUG (DNA:RNA)
RNA: B8 RNA with C26G, U27G, U29C, C31G
DNA 1: CAATCTGAATTCCGGTCTCCC
DNA 2: TGGTGGCTACGACGGGATT
B14: AGUGUUU (DNA:RNA)
RNA: B8 RNA with C25A, C26G, U28G, C31U
DNA 1: CAATCTGAATTCCGGTCTCCC
DNA 2: TGGTGGCTACGACGGGATT
B15: GUAUAGG (DNA:RNA)
RNA: B1 RNA with A25G, C28U, C29A
DNA 1: CAATCTGAATTCCGGTCTCCC
DNA 2: TGGTGGCTACGACGGGATT
B16: GGAGUUG (DNA:RNA)
RNA: B1 RNA with A25G, U26G, C28G, C29U, G30U
DNA 1: CAATCTGAATTCCGGTCTCCC
DNA 2: TGGTGGCTACGACGGGATT
B17: GGAAUGC (DNA:RNA)
RNA: B1 RNA with A25G, U26G, C28A, C29U, G31C
DNA 1: CAATCTGAATTCCGGTCTCCC
DNA 2: TGGTGGCTACGACGGGATT
B18: UUGACCC (DNA:RNA)
RNA: B1 RNA with A25U, A27G, C28A, G30C, G31C
DNA 1: CAATCTGAATTCCGGTCTCCC
DNA 2: TGGTGGCTACGACGGGATT
B19: CGGGCAC (DNA:RNA)
RNA: B8 RNA with C26G, U27G, U28G, U29C, U30A
DNA 1: CAATCTGAATTCCGGTCTCCC
DNA 2: TGGTGGCTACGACGGGATT
B20: GCUCUGC (DNA:RNA)
RNA: B8 RNA with C25G, U28C, U30G
DNA 1: CAATCTGAATTCCGGTCTCCC
DNA 2: TGGTGGCTACGACGGGATT

Changes are numbered by the printed parent chain; changes in the protein carry UniProt numbers. The list shows a part of the results.

The assay concerns the target T1, RBFOX1 RRM RbFoxmut (Fox-RRM*) (Homo sapiens, UniProt Q9NWB1 109-208, R118D;E147R;N151S;E152T).
T1 sequence: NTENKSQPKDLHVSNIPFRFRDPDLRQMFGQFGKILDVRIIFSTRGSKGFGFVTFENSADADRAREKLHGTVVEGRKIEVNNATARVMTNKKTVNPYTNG
Description: EMSA; HiTS-Eq, 1 nM pool, 10 min; buffer printed only for the single-RNA assays: 10 mM Tris pH 7.5, 150 mM NaCl, 3.4 mM EDTA, 0.001% NP-40, 30 C. Conditions: tags: His6 N-terminal (pET28a); label: 5' 32P. The essentials:
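Purified RbFox RRM (wild type or mutant) was equilibrated for 10 min in 50 µL with 1 nM of a 5′-radiolabelled pool of RNA with 7 randomized nucleotides, its flanks annealed to DNA oligonucleotides, across increasing protein concentrations. Free RNA was separated by 8% native PAGE, excised, reverse-transcribed, PCR-barcoded and sequenced on an Illumina HiSeq 2500. Relative association constants came from read-count changes of each variant against the control reaction, normalised to the cognate motif.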
B1: the binding signal was 0.0621 KA relative to UGCAUGU.

On to B2, for which the binding signal is 0.0713 KA relative to UGCAUGU.

As to B3, the binding signal is 0.0892 KA relative to UGCAUGU.

Take B4: the binding signal was 0.0961 KA relative to UGCAUGU.

Regarding B5, the binding signal was 0.0614 KA relative to UGCAUGU.

For the molecule B6, the binding signal was 0.0514 KA relative to UGCAUGU.

Turning to B7, the binding signal was 0.0926 KA relative to UGCAUGU.

Take B8: the binding signal is 0.0392 KA relative to UGCAUGU.

Regarding B9, the binding signal is 0.0711 KA relative to UGCAUGU.

On to B10, for which the binding signal was 0.0959 KA relative to UGCAUGU.

Take B11: the binding signal was 0.059 KA relative to UGCAUGU.

Consider B12, for which the binding signal is 0.118 KA relative to UGCAUGU.

With B13, the binding signal is 0.236 KA relative to UGCAUGU.

With B14, the binding signal is 0.116 KA relative to UGCAUGU.

In the case of B15, the binding signal is 0.116 KA relative to UGCAUGU.

On to B16, for which the binding signal is 0.209 KA relative to UGCAUGU.

As to B17, the binding signal is 0.686 KA relative to UGCAUGU.

Consider B18, for which the binding signal is 0.0684 KA relative to UGCAUGU.

On to B19, for which the binding signal is 0.0766 KA relative to UGCAUGU.

As to B20, the binding signal was 0.0694 KA relative to UGCAUGU.
